The source gives no read counts; variants with many changes may rest on few reads.
B1: LINE1-mini (parent)
chain: GGCAGAGCUCAACACAGCGUGGCAAAGUGGCUGUGGCUAGACUGCC

Variants of: B1
Assay: self-cleavage, relative activity (ratio to wild type); higher = more cleavage; in vitro, sequencing; the parent is a self-cleaving ribozyme

Row | Variant | self-cleavage
1 | C3U A16G U20A A26G | 0.03
2 | G22A G33U G35U | 0.06
3 | C15A U32C A41C C46G | 0.04
4 | G21A U32G A41U C45A C46U | 0.04
5 | A16C C18A G29C A41C | 0.08
6 | G7U U32G U38A | 0.06
7 | U34G G40U C46G | 0.03
8 | A11G C18G C31A G35U U38A C45G | 0.02
9 | C8U G35U G36C | 0.58
10 | G2U A25C G27A C37A C45A | 0.06
11 | C3A C8U U9C G29U C31A | 0.04
12 | C8G G17A A26U C46G | 0.02
13 | C18G G19C A24C A41U C46A | 0.01
14 | A4U C23A G36U | 0.06
15 | G17U G29A U32G G36U U43C | 0.09
16 | U20A G22A C46U | 0.55
17 | U9A C23A C42U | 0.03
18 | G1C G2C C3G U20C | 0.13
19 | G5C C13G C23A G27U C31A C45U | 0.01
20 | G1U C31U G40U G44U | 0.01
21 | G29C C37G U38C A41U | 0.01
22 | C13U A14U U28A U34C A41U | 0.15
23 | C3A G29U A41C | 0.08
24 | G5U C10A A24G U28A U43C | 0.04

Row | Variant | self-cleavage
25 | G5C G22A G27U G29C C37A A41U | 0.1
26 | A14G A26U G27U | 0.15
27 | G2C U32C A39C C42U | 0.01
28 | G22A U38A G44A | 0.07
29 | U9A C18U C37A | 0.21
30 | G17U G19C G29C | 0.28
31 | C8U U20C A25G G27U G35A | 0.22
32 | U9G G27U U32A U38G | 0.02
33 | G2U G17U U20G G40A | 0.05
34 | A4C G7C G29C | 0.22
35 | C8U G27C C31G | 0.09
36 | U9C G21A U32G U34C | 0.01
37 | G7U C13G G35A C37A | 0.1
38 | G5C C10A A24U A39U | 0.02
39 | C8A G19U G30A G33C | 0.04
40 | C3U G5A A6U A11G C37A C42A | 0.02
41 | G2C C10U A14C A25C | 0.03
42 | A4C G7A C10A A16C | 0.03
43 | A4U G35U G40C | 0.08
44 | A11C C37A G40C | 0.04
45 | G22U A26G U43C | 0.54
46 | G5A G33A G35U | 0.11
47 | G1C G5C C46U | 0.04
48 | G2U G5C G30A G40A | 0.02

Row | Variant | self-cleavage
49 | G19U A25G U43C G44C | 0.04
50 | G7U A11U A16C | 0.02
51 | U20C G30U C46A | 0.12
52 | C3A G27A G33U | 0.27
53 | G29A G30U G36C | 0.04
54 | G36C A39U C46G | 0.02
55 | C10A C23A G30A C42A | 0.02
56 | C15G G19C G33A C46U | 0.02
57 | G1U U9A U20A G30U G33U | 0
58 | G22U G33U G40C C46U | 0.03
59 | A24C U34C G35A | 0.05
60 | A11G C45U C46U | 0.03
61 | A6U C18G G19U G33U G44U | 0
62 | A4U C18U C23U G36U | 0.05
63 | C18G G33C C45U | 0.04
64 | G5U A14U C18U G27C C46A | 0.01
65 | G7C C10U C13A | 0.03
66 | G1U A6C G30A G33U | 0.01
67 | G7A U20G C31G U43C G44A | 0.04
68 | C8A U20A G36U U38A G40U | 0.07
69 | G2A A6C G29U G40A | 0.13
70 | G1U G21C C37A G40C | 0.02
71 | G2C A14U C15G A24C G29A | 0.02
72 | C3U C15U C23A U43A | 0.13

Row | Variant | self-cleavage
73 | G5A C31A G33U A41C | 0.06
74 | C8U A12U A25G G27A | 0.11
75 | G5A A6U C23A G35U | 0.14
76 | G2U C8G G35A | 0.07
77 | C13A G21C G35U C45U | 2.23
78 | C3G G40C G44U | 0.07
79 | C3G C10U G22A | 0.62
80 | U9G A14C U20A G29A A41G | 0.01
81 | G7U A12C G19A | 0.01
82 | C3A A24G G33C | 0.08
83 | A16U C18U G21U G22U U32A | 0.16
84 | U9G G21C C42U | 0.04
85 | G2U A26G C42U C45A C46U | 0.03
86 | C15U U34G G36U | 0.04
87 | G17U G19A A26U G35C | 0.09
88 | G7U A25C C46G | 0.05
89 | G2A U9A U28G C31U C37A C46A | 0.06
90 | G2A C3G C15G G27A | 0.04
91 | G2A G22A G33U | 0
92 | C8G A24U G30U | 0.05
93 | G1U A14U A24C U28A G35U G40A | 0.01
94 | C15A C18U G44U | 0.13
95 | G7C G22A G29A U34G C37U | 0.01
96 | G5U U9G A11U G27C G29A | 0

Row | Variant | self-cleavage
97 | C10U C13G A26C C37U | 0.03
98 | A16G C37U U38C U43C C45G C46G | 0.01
99 | U20A G33A G35U G44C | 0
100 | G2U A41U C42U G44U | 0.16
101 | C3U G5U G29A U38C | 0.06
102 | A14G C18G G21U U32C | 0.04
103 | G7A U9C A25G A26C C31U | 0.04
104 | G21U A39C C42A | 0.05
105 | C10U A11U A12C G27C G30C U32G | 0
106 | C13A U34C U43A C45A | 0.01
107 | C8G C13A A26G G29A C31A G44U | 0.05
108 | G5A A11U C42A | 0.01
109 | U28G G30U A41C | 0.01
110 | C8G A26G G44A | 0.05
111 | G2U C3U A6C G22A G40A | 0.02
112 | G1A U9A U20C | 0.18
113 | G2C C3U G7U G22U G27A | 0.22
114 | A12C A14C A16C C37A | 0.05
115 | G5U C8A A24G | 0.71
116 | G7C G36U C46A | 0.11
117 | G2A G35U C42U | 0.07
118 | C15G G30C U38C G40A G44A | 0
119 | A11G C13G A14U G22U U28C | 0.01
120 | G2C G27C A39U | 0.1

Row | Variant | self-cleavage
121 | G17C G22U A24U C31A A39U C42G | 0.01
122 | G2C C10A U43A G44C | 0
123 | U9G C10U G29C A39C | 0.02
124 | G2C G7U C8U A41U | 0.18
125 | C10U C13A G36A C42U | 0.03
126 | G7A C8G G40U | 0.14
127 | C3U A25G G29U | 0.44
128 | C10A A24U A25G A26G | 0.03
129 | G7C U9A A12C C18A C42G G44A | 0.01
130 | G1A C3A A11G C42A | 0.06
131 | G30A G40A C45A | 0.14
132 | C3U G19C G21U A41C | 0.06
133 | A11U G19U G35C | 0.02
134 | A6G G7A G21A C31U U32C U34G G44A C45A | 0.06
135 | A4G U9A C13U A14G C15U G22A U28G G36C A39G | 0.02
136 | G7C U9C A16C U20G | 0.01
137 | A16U C23G G40A A41C C42G | 0.09
138 | C3G C15U A16G G19A C31G | 0.17
139 | A4U C8U C15U U38A | 0.24
140 | G29A G30C G35U | 0.02
141 | G5U A24U A25G | 0.04
142 | A14C A41U U43G | 0.17
143 | G2U G5C C8U C18U G22C | 0.02
144 | A4U A6U G29U C31A G35C | 0.16

Row | Variant | self-cleavage
145 | G1C A16U A26C G35A | 0.03
146 | A6G G17A G27A | 0.19
147 | G22U C42G U43A | 0
148 | C15U A16U G22A G27C G30C G35U | 0.01
149 | G21U A26U A41C | 0.02
150 | C10A G21A C31G | 0.03
151 | G21U C37G U38A A41U | 0.01
152 | A6C C13A A26G | 0.12
153 | C3A U9A U20A G21A | 0.25
154 | G2U G17A U43C | 0
155 | C15A C23A G27A U32C | 0.04
156 | C18G G27A C37U | 0.01
157 | C8G G27U G29A C31U G35U | 0.06
158 | G17U G21A G30U | 0.01
159 | G2A A26U G30U | 0.4
160 | C3A A4G A26G G40U | 0.02
161 | A14C C31G U32A G36U | 0.04
162 | G1C C10G G29C G30U | 0.03
163 | C3U C23G U34G C42G | 0.01
164 | A4G A6C G19A | 0.14
165 | C3U U32G C37A | 0.11
166 | A16G A25G C37A | 0.02
167 | C13U G17A C23A | 0.54

— the RNAGym collection of RNA variant scans (doi:10.7554/elife.90254)
